Laboratory results taken from PubChem BioAssay AID1347120 (National Center for Advancing Translational Sciences (NCATS), 2019).
Hit rate of the full screen: of about 390,000 compounds, about 930 (0.24%) were called active. This list was built around the results that the source calls inconclusive (neither active nor inactive); the mix of calls is not that of the screen. Calls follow the shape of the dose curve; as a rule, active = well fitted activation curve with a large enough effect; inconclusive = small, poorly fitted or top-dose-only effect; inactive = no such curve, though single readings can be large or run the other way. Potencies of inconclusive entries are doubtful fits and often do not repeat.

Test: qHTS for Suppressors of FUS Proteinopathy: Primary screen using FUS-linked yeast assay; also: nearly all actives have a fitted effect of over 55% in size;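 as to growth rescue (activation): plate controls were DMSO vehicle for no effect and reference control for full effect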
Conditions: S. cerevisiae FUS-expressing, OD600, 24 h; Potency: growth rescue; growth rescue (activation): at 76.6 µM (top of the series)
Outline: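 FUS-expressing yeast, raffinose-pregrown, induced in 2% galactose minimal medium at OD 0.005; compounds in a dilution series, 24hr at 30C. Growth restoration read as absorbance at 600 nm. CP55940 positive control, DMSO negative.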
Potency is read from the fitted curve at half-maximal effect; tags tell the direction and shape of the fitted curve.

Row | Compound | Potency | growth rescue (activation)
1 | COC(=O)[C@@]1(Cc2ccc(OC)cc2)[C@H]2c3cc(C(=O)N4CCCC4)n(Cc4cc(C)n(C)n4)c3C[C@H]2CN1C(=O)c1ccccc1 | inconclusive: 31.6 µM [activator, partial curve, poor fit] | 
2 | O=C(c1ccc(F)cc1F)N1CCN(c2ccccn2)CC1 | inactive | 
3 | CCOc1ccc(C2c3[nH]c4ccccc4c3CCN2C(=O)Cc2cccc(OCC)c2OCC)cc1 (stereo not given) | inconclusive: 28.2 µM [activator, single point] | 
4 | Cc1ccc(C)c(S(=O)(=O)N2CCN(C(=O)c3ccc4ccccc4n3)CC2)c1 | inconclusive: 15.8 µM [activator, single point] | 
5 | C=CCn1c(SCC(=O)c2cccs2)nc2sc(C)cc2c1=O | inconclusive: 10 µM [activator, partial curve, poor fit] | 
6 | CCc1ccc(N2C(=O)C[C@@](C#N)(C(=O)OC)[C@H]2c2ccccc2)cc1 | inactive | 
7 | CCc1nc2ccc(C(=O)N(C)CC(=O)Nc3ccc(Cl)c(C(F)(F)F)c3)cc2nc1CC | inconclusive: 35.5 µM [activator, single point] | 
8 | CCCN(CCC)C(=O)CN1C(=O)CSc2ccc(S(=O)(=O)N3CCC(C)CC3)cc21 | inconclusive: 25.1 µM [activator, partial curve] | 
9 | COc1cccc(C(=O)c2cn(CC(=O)Nc3cccc(C(F)(F)F)c3)c3nc(C)ccc3c2=O)c1 | inconclusive: 22.4 µM [activator, partial curve, poor fit] | 
10 | CCOc1ccc(CCN2C(=O)C(=O)N([C@@H](Cc3ccccc3)CN3CCC[C@H]3CN3C(=O)C(=O)NC[C@@H]3Cc3ccccc3)C[C@@H]2Cc2ccccc2)cc1 | inconclusive: 14.1 µM [activator, partial curve] | 
11 | Cc1ccc(N(C(=O)c2nsc(Cl)c2Cl)C(C(=O)NC2CCCC2)c2ccc(O)cc2)cc1C (stereo not given) | inconclusive: 25.1 µM [activator, partial curve, poor fit] | 
12 | CC(C)(C)c1ccc(NC(=O)COC(=O)c2ccc(CN3CCCC3=O)cc2)cc1 | inconclusive: 39.8 µM [activator, partial curve, poor fit] | 
13 | CCOc1ccc(CCNC(=O)Cn2c(=O)c3cccn3c3ccc(F)cc32)cc1OCC | inactive | 
14 | O=C1C(Cl)=C(NCCc2ccccc2)C(=O)c2ccccc21 | inactive | 
15 | NNC1=N[C@H]2CS(=O)(=O)C[C@H]2S1 | inconclusive: 10 µM [activator, single point] | 
16 | Cc1cc(N)c2cc(NC(=O)/C=C/c3ccccc3Cl)ccc2n1 | inconclusive: 28.2 µM [activator, single point] | 
17 | N/C(=N\OC(=O)c1ccccc1Cl)c1ccccn1 | inactive | 
18 | CN(C(=O)C1CCOC1)c1nnc(-c2cccnc2)s1 (stereo not given) |  | inconclusive: 49.4% [activator]
19 | COc1cc(OC)c(NC(=O)N2CCOCC2)cc1Cl | inactive | 
20 | COc1ccc(/C=C\C(=O)NCc2ccc3[nH]c(C)cc3c2)cc1OC | inconclusive: 25.1 µM [activator, partial curve, poor fit] | 

Row | Compound | Potency | growth rescue (activation)
21 | C[C@@H]1CCN(C2CC2)S(=O)(=O)c2c(cccc2N2CC[C@H](O)C2)O1 | inactive | 
22 | Cc1onc(-c2c(Cl)cccc2Cl)c1C(=O)N/N=C(\N)COc1ccc(Cl)cc1 | inconclusive: 31.6 µM [activator, partial curve, poor fit] | 
23 | COC(=O)C1=C(C(=O)OC)[C@@H]2N(C)c3ccc(OC)cc3[C@@]23C[C@@H](C(=O)OC)N(C(=O)NC2CCCCC2)C3=N1 | inconclusive: 15.8 µM [activator, partial curve, poor fit] | 
24 | Cc1cccc(C)c1NC(=O)Nc1nc(C(N)c2ccccc2Cl)cs1 (stereo not given) | inconclusive: 28.2 µM [activator, partial curve, poor fit] | 
25 | O=C(OCC(=O)N1CCC(Cc2ccccc2)CC1)c1cncc(Br)c1 | inconclusive: 28.2 µM [activator, single point] | 
26 | O=C(/C=C/c1ccc(S(=O)(=O)N2CCOCC2)cc1)N1CCN(c2ccc(F)cc2)CC1 | inactive | 
27 | O=C(Nc1ccccc1)c1cc(C2CCCN(C(=O)C/C=C/c3ccccc3)C2)on1 (stereo not given) | inconclusive: 35.5 µM [activator, single point] | 
28 | COc1ccc(N2CCN(C(=O)c3ccc(NS(=O)(=O)c4ccccc4)cc3)CC2)cc1 | inconclusive: 31.6 µM [activator, single point] | 
29 | Cc1cccc(NC(=O)c2cc(-c3ccc4c(c3)OCCO4)on2)c1 | inactive | 
30 | COC(=O)C(C)Nc1cccc(Br)c1 (stereo not given) | inactive | 
31 | CC1CCN(C(=O)c2ccc(COc3ccccc3Cl)o2)CC1 | inconclusive: 8.91 µM [activator, partial curve, poor fit] | 
32 | CCOC(=O)c1ccc(N2CCOCC2)c(NC(=O)c2nccnc2C(=O)O)c1 | inactive | 
33 | COc1ccc(OC)c(NC(=O)CSc2cn(CC(=O)N3CCCCCC3)c3ccccc23)c1 | inconclusive: 50.1 µM [activator, single point] | 
34 | CCOC(=O)Cc1csc(SCC(=O)c2c(N)n(CC(C)C)c(=O)n(C)c2=O)n1 | inconclusive: 56.2 µM [activator, partial curve, poor fit] | 
35 | COCCN(C(=O)CSc1nnc(-c2ccc(C)c(C)c2)o1)c1c(N)n(CC(C)C)c(=O)[nH]c1=O | inconclusive: 4.47 µM [activator, full curve, poor fit] | 
36 | COCCN(C(=O)c1ccco1)c1nc(-c2ccc(OC)cc2)cs1 | inconclusive: 22.4 µM [activator, partial curve] | 
37 | O=C(Nc1cccc(NC(=O)c2ccc(Cl)cc2Cl)c1)c1cccnc1 | inconclusive: 31.6 µM [activator, single point] | 
38 | Cc1ccc(CCNC(=O)Cn2ncc3c([nH]c4ccc(C)cc43)c2=O)cc1 | inactive | 
39 | O=C(NCc1ccc(F)cc1)c1cc(C2CCCCN2C(=O)CCCc2ccccc2)on1 (stereo not given) | inconclusive: 15.8 µM [activator, partial curve] | 
40 | CN(C)S(=O)(=O)c1ccc(C(=O)Nc2cc(S(=O)(=O)Nc3ccccc3Cl)ccc2N2CCCCC2)cc1 | inconclusive: 11.2 µM [activator, partial curve, poor fit] | 
